# Measured values reported in the supplement of paper PMC8728848.
# Some of the results follow.
# What was measured:
# Test in all cases: glycan array binding signal (z-score within array); higher = stronger binding
# Settings in all cases: glycan notation: IUPAC condensed, linker removed
# [1] = target: 3dGal(b1-3)[Fuc(a1-4)]Glc
# Method in brief: (§1)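 Arrays were curated from the Consortium for Functional Glycomics database, 3228 in total, and kept only where the protein sequence was available. Binding is expressed as a within-array Z-score. This score was averaged across arrays of the same protein sequence at different concentrations or buffers and across linkers, and negative values can be read as non-binding.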
# [2] = target: 3dGal(b1-4)Glc
# Method in brief: as §1
# [3] = target: 4d8dNeu5Ac(a2-3)Gal(b1-4)Glc
# Method in brief: as §1
# [4] = target: 4dNeu5Ac(a2-3)Gal(b1-4)Glc
# Method in brief: as §1
# [5] = target: 7dNeu5Ac(a2-3)Gal(b1-4)Glc
# Method in brief: as §1
# [6] = target: 8dNeu5Ac(a2-3)Gal(b1-4)Glc
# Method in brief: as §1
# [7] = target: 9dNeu5Ac(a2-3)Gal(b1-4)Glc
# Method in brief: as §1
# [8] = target: Ara(a1-5)Ara(a1-5)Ara(a1-5)Ara(a1-5)Ara(a1-5)Ara
# Method in brief: as §1
# [9] = target: Ara(a1-5)Ara(a1-5)Ara(a1-5)Ara(a1-5)Ara(a1-5)Ara(a1-5)Ara
# Method in brief: as §1
# [10] = target: Fuc(a1-2)Gal
# Method in brief: as §1
# [11] = target: Fuc(a1-2)Gal(b1-3)GlcNAc(b1-3)Gal(b1-4)Glc
# Method in brief: as §1
# [12] = target: Fuc(a1-2)Gal(b1-3)GlcNAc(b1-3)[Fuc(a1-3)[Gal(b1-4)]GlcNAc(b1-6)]Gal(b1-4)Glc
# Method in brief: as §1
# [13] = target: Fuc(a1-2)Gal(b1-3)[Fuc(a1-4)]GlcNAc(b1-3)Gal(b1-4)Glc
# Method in brief: as §1
# [14] = target: Fuc(a1-2)Gal(b1-3)[Fuc(a1-4)]GlcNAc(b1-3)Gal(b1-4)[Fuc(a1-3)]GlcNAc(b1-3)Gal(b1-4)Glc
# Method in brief: as §1
# [15] = target: Fuc(a1-2)Gal(b1-3)[Fuc(a1-4)]GlcNAc(b1-3)[Fuc(a1-2)]Gal(b1-4)Glc
# Method in brief: as §1
# [16] = target: Fuc(a1-2)Gal(b1-3)[Fuc(a1-4)]GlcNAc(b1-3)[Fuc(a1-3)[Gal(b1-4)]GlcNAc(b1-6)]Gal(b1-4)Glc
# Method in brief: as §1
# [17] = target: Fuc(a1-2)Gal(b1-3)[Fuc(a1-4)]GlcNAc(b1-3)[Gal(b1-4)GlcNAc(b1-6)]Gal(b1-4)Glc
# Method in brief: as §1
# [18] = target: Fuc(a1-2)Gal(b1-4)[Fuc(a1-3)]GlcNAc(b1-3)Gal(b1-4)Glc
# Method in brief: as §1
# [19] = target: Fuc(a1-2)Gal(b1-4)[Fuc(a1-3)]GlcNAc(b1-3)[Fuc(a1-2)]Gal(b1-4)Glc
# Method in brief: as §1
# [20] = target: Fuc(a1-2)[Gal(a1-3)]Gal
# Method in brief: as §1
# [21] = target: Fuc(a1-2)[Gal(a1-3)]Gal(b1-4)GlcNAc(b1-3)Gal(b1-4)Glc
# Method in brief: as §1
# [22] = target: Fuc(a1-2)[GalNAc(a1-3)]Gal
# Method in brief: as §1
# [23] = target: Fuc(a1-2)[GalNAc(a1-3)]Gal(b1-3)GlcNAc(b1-3)Gal(b1-4)Glc
# Method in brief: as §1
# [24] = target: Fuc(a1-2)[GalNAc(a1-3)]Gal(b1-3)[Fuc(a1-4)]GlcNAc(b1-3)Gal(b1-4)Glc
# Method in brief: as §1
# [25] = target: Fuc(a1-2)[Neu5Ac(bond)]Gal(b1-3)GlcNAc(b1-3)Gal(b1-4)Glc
# Method in brief: as §1
# [26] = target: Fuc(a1-3)GlcNAc6S
# Method in brief: as §1
# [27] = target: Fuc(a1-3)[3dGal(b1-4)]Glc
# Method in brief: as §1
# [28] = target: Fuc(a1-3)[3dGal(b1-4)]GlcNAc(b1-3)Gal
# Method in brief: as §1
# [29] = target: Fuc(a1-3)[Gal(b1-4)]Glc
# Method in brief: as §1
# [30] = target: Fuc(a1-3)[Gal(b1-4)]GlcNAc
# Method in brief: as §1
# [31] = target: Fuc(a1-3)[Gal(b1-4)]GlcNAc(b1-3)Gal(b1-4)Glc
# Method in brief: as §1
# [32] = target: Fuc(a1-3)[Gal(b1-4)]GlcNAc(b1-3)Gal(b1-4)[Fuc(a1-3)]Glc
# Method in brief: as §1
# [33] = target: Fuc(a1-3)[Gal(b1-4)]GlcNAc(b1-3)[Fuc(a1-2)]Gal(b1-4)Glc
# Method in brief: as §1
# [34] = target: Fuc(a1-3)[Gal(b1-4)]GlcNAc(b1-3)[Fuc(a1-3)[Gal(b1-4)]GlcNAc(b1-6)]Gal(b1-4)Glc
# Method in brief: as §1
# [35] = target: Fuc(a1-3)[Gal3S(b1-4)]Glc
# Method in brief: as §1
# [36] = target: Fuc(a1-3)[Gal3S(b1-4)]GlcNAc
# Method in brief: as §1
# [37] = target: Fuc(a1-3)[Gal3S(b1-4)]GlcNAc(b1-3)Gal
# Method in brief: as §1
# [38] = target: Fuc(a1-3)[Gal3S(b1-4)]GlcNAc(b1-3)Gal(b1-4)Glc
# Method in brief: as §1
# [39] = target: Fuc(a1-3)[Gal3S(b1-4)]GlcNAc6S(b1-3)Gal(b1-4)Glc
# Method in brief: as §1
# [40] = target: Fuc(a1-3)[Gal6S(b1-4)]GlcNAc(b1-3)Gal(b1-4)Glc
# Method in brief: as §1
# [41] = target: Fuc(a1-6)GlcNAc
# Method in brief: as §1
# [42] = target: Gal(a1-4)Gal(b1-4)Glc
# Method in brief: as §1
# [43] = target: Gal(a1-4)Gal(b1-4)GlcNAc
# Method in brief: as §1
# [44] = target: Gal(a1-6)Glc
# Method in brief: as §1
# [45] = target: Gal(b1-3)GalNAc
# Method in brief: as §1
binder,measurement,setting,value
"ZG16p (Homo sapiens), O60844 (protein) ARSSSYSGEYGGGGGKRFSHSGNQLDGPITALRVRVNTYYIVGLQVRYGKVWSDYVGGRNGDLEEIFLHPGESVIQVSGKYKWYLKKLLFVTDKGRYLSFGKDSGTSFNAVPLHPNTVLRFISGRSGSLIDAIGLHWDVYPSSCSRC",glycan array binding signal (z-score),[1],-0.327
same,glycan array binding signal (z-score),[2],-0.064
same,glycan array binding signal (z-score),[3],-0.328
same,glycan array binding signal (z-score),[4],-0.219
same,glycan array binding signal (z-score),[5],-0.328
same,glycan array binding signal (z-score),[6],-0.328
same,glycan array binding signal (z-score),[7],-0.299
same,glycan array binding signal (z-score),[8],-0.328
same,glycan array binding signal (z-score),[9],-0.328
same,glycan array binding signal (z-score),[10],-0.287
same,glycan array binding signal (z-score),[11],-0.328
same,glycan array binding signal (z-score),[12],-0.328
same,glycan array binding signal (z-score),[13],-0.328
same,glycan array binding signal (z-score),[14],-0.328
same,glycan array binding signal (z-score),[15],-0.328
same,glycan array binding signal (z-score),[16],-0.328
same,glycan array binding signal (z-score),[17],-0.328
same,glycan array binding signal (z-score),[18],-0.328
same,glycan array binding signal (z-score),[19],-0.328
same,glycan array binding signal (z-score),[20],-0.213
same,glycan array binding signal (z-score),[21],-0.237
same,glycan array binding signal (z-score),[22],-0.249
same,glycan array binding signal (z-score),[23],-0.328
same,glycan array binding signal (z-score),[24],-0.328
same,glycan array binding signal (z-score),[25],-0.259
same,glycan array binding signal (z-score),[26],-0.123
same,glycan array binding signal (z-score),[27],-0.025
same,glycan array binding signal (z-score),[28],-0.229
same,glycan array binding signal (z-score),[29],-0.057
same,glycan array binding signal (z-score),[30],-0.031
same,glycan array binding signal (z-score),[31],-0.178
same,glycan array binding signal (z-score),[32],-0.328
same,glycan array binding signal (z-score),[33],-0.328
same,glycan array binding signal (z-score),[34],-0.328
same,glycan array binding signal (z-score),[35],-0.259
same,glycan array binding signal (z-score),[36],-0.328
same,glycan array binding signal (z-score),[37],-0.328
same,glycan array binding signal (z-score),[38],-0.328
same,glycan array binding signal (z-score),[39],-0.274
same,glycan array binding signal (z-score),[40],-0.328
same,glycan array binding signal (z-score),[41],-0.305
same,glycan array binding signal (z-score),[42],-0.109
same,glycan array binding signal (z-score),[43],-0.328
same,glycan array binding signal (z-score),[44],-0.272
same,glycan array binding signal (z-score),[45],-0.177
